This note sets out measurements from the supplement of paper PMC11417369.

± gives the standard deviation of the averaged measurements. Some of the results follow.

This test deals with PfAP2-EXP AP2 domain (GST-tagged). Nature of the test: gcPBM binding intensity (ln(normalized median fluorescence intensity)); higher = stronger DNA binding. The essentials: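 DNA-binding domains from P. falciparum, fused to GST and produced in E. coli, were put on an Agilent 4 × 180k double-stranded probe array for 1 h in 1× PBS holding 1% milk, 0.2 mg/ml BSA, 0.5% salmon testes DNA and 0.03% Triton X-100. Probes were primer-extended, 36 bp long and drawn from intergenic genomic regions, with negative controls included. After Alexa488 anti-GST antibody detection and a 488 nm scan, binding intensity was set as the highest Masliner-normalised natural-log median intensity across replicate spots of either probe orientation.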
For the sequence “TTTTGCGAAAAAAGGTGTACTGTAAATATATTGAGG [XGTACX_site8941]”, the “gcPBM binding intensity (ln)” value worked out at 8.79 ± 0.28.

Turning to “TACGTAAATTTTAATACACACTATAGGATATTCTGC [CACACA_site5418]”, the “gcPBM binding intensity (ln)” value turned out to be 8.32 ± 0.49.

As for “TTTTTTTTTAATTACATAAAATAAAAATATTTCTAT [CACACA_negctrl_site584]”, the “gcPBM binding intensity (ln)” value worked out at 8.03 ± 0.47.

As to “TTAATATGTTTAACCATTTTACATAAATTGATTTGT [CACACA_negctrl_site1100]”, the “gcPBM binding intensity (ln)” value turned out to be 8.39 ± 0.44.

For the sequence TTTTTTTTGATTTGTTTGCACTTATTTCCACAATAA, the “gcPBM binding intensity (ln)” value stood at 8.91 ± 0.41.

As for “AAATAAATAAATATACGTACATATATATAATATATA [XGTACX_site5124]”, the “gcPBM binding intensity (ln)” value stood at 8.52 ± 0.15.

Take “TGAATAAAAAAACCTAGTACTTAAATAAGTATATTT [XGTACX_site7690]”: the “gcPBM binding intensity (ln)” value came to 8.18 ± 0.36.

As for “TATATATTTATATTTACACACAGTTACTATGTAGAT [CACACA_site3292]”, the “gcPBM binding intensity (ln)” value worked out at 8.45 ± 0.36.

For “ATTAAATGATCAAGGTGTACATTAACAAGAACTATA [XGTACX_site7022]”, the “gcPBM binding intensity (ln)” value came to 8.93 ± 0.45.

Consider “TAAAAAAAATAGAAACGTACATAAAAAATAAATAAT [XGTACX_site5796]”, for which the “gcPBM binding intensity (ln)” value is 8.98 ± 0.47.

For the sequence “TATATATATACATACGTACACACAAATATTAAAATA [CACACA_site1950]”, the “gcPBM binding intensity (ln)” value was determined as 8.89 ± 0.014.

As for “TATATTTATATATGTTGTACTCTCCAATAATATTCC [XGTACX_site4438]”, the “gcPBM binding intensity (ln)” value turned out to be 8.68 ± 0.29.

As for “TTTATTAATGGACACACACACACACCCAAAATAAAA [CACACA_site4294]”, the “gcPBM binding intensity (ln)” value was 8.92 ± 0.57.

In the case of “TCATATAAAACATGCACACATATGTACTCTTATAAA [CACACA_site3748]”, the “gcPBM binding intensity (ln)” value was 8.76 ± 0.27.

On to “GTACTTATTAAATGTGCATGTTGATATATAAATGTA [TGCATGCA_site902]”, for which the “gcPBM binding intensity (ln)” value worked out at 8.69 ± 0.26.

On to “TTTATATTTTAAAAAATAATATTATGTATTTTTAAA [TGCATGCA_negctrl_site507]”, for which the “gcPBM binding intensity (ln)” value worked out at 7.87 ± 0.39.

For the sequence “TTTAATATATATATGTGTACATATAAATTATATATA [XGTACX_site8511]”, the “gcPBM binding intensity (ln)” value was 8.2 ± 0.23.

As for “ATATAATAAACGTGTACACAATTAAATTATTATATA [CACACA_site5017]”, the “gcPBM binding intensity (ln)” value is 8.7 ± 0.23.

As for “ATATACATAAAAATATGTACATATAAAATATATACA [XGTACX_site2394]”, the “gcPBM binding intensity (ln)” value is 8.38 ± 0.25.

Consider “TAGACTCCCAGACACACACACACACCCATATAATAT [CACACA_site593]”, for which the “gcPBM binding intensity (ln)” value was found to be 8.55 ± 0.57.

For the sequence “TATTATTATTGTTGATGTACATTTAATATAATATAT [XGTACX_site4482]”, the “gcPBM binding intensity (ln)” value is 8.49 ± 0.39.

In the case of “TTTTTTTTTTTTGGTGCATGCACATTTTGTTTTTTT [TGCATGCA_site570]”, the “gcPBM binding intensity (ln)” value is 9.72 ± 0.11.

Regarding “TTATAATCTTTTGGTTCTATAGAATATCAAAAAATA [CACACA_negctrl_site1149]”, the “gcPBM binding intensity (ln)” value was 8.39 ± 0.68.

Turning to “TTTTTAAAAAAATTGATTCTTTTTCTTTTTTTTCTT [XGTACX_negctrl_site127]”, the “gcPBM binding intensity (ln)” value was determined as 8.13 ± 0.49.

As for “TTTTTTGCTTGGGTGAGAAAAAATAAAATAAAGGAA [TGCATGCA_negctrl_site139]”, the “gcPBM binding intensity (ln)” value was 8.8 ± 0.37.

For the sequence “TATTATTGTCATTTTTTTTTTTTTTTTTTCTATTTC [XGTACX_negctrl_site114]”, the “gcPBM binding intensity (ln)” value was found to be 8.47 ± 0.61.

For the sequence “AAAAAATAAAAGGAAAAAAAAAAAAAAAAAAAAAAT [CACACA_negctrl_site635]”, the “gcPBM binding intensity (ln)” value turned out to be 8.09 ± 0.61.

In the case of “ATTTATACAAAGCTTCGTACATAATGTATTCTTTTT [XGTACX_site2166]”, the “gcPBM binding intensity (ln)” value is 8.73 ± 0.36.

“TTTTAATTGTTTATTTGTACATATGTTTAATTATAT [XGTACX_site571]”: the “gcPBM binding intensity (ln)” value stood at 8.86 ± 0.4.

With “TTATTAAAAATGTATTGTACAAATTTATTAGTAAAT [XGTACX_site4799]”, the “gcPBM binding intensity (ln)” value stood at 8.35 ± 0.18.

Regarding “AAAGTTACATTCGACACACACATAACAACTAAATAA [CACACA_site3419]”, the “gcPBM binding intensity (ln)” value is 8.63 ± 0.57.

Consider “TTTTACATATATATATGTACGAAAATGAAAAGGTCA [XGTACX_site5576]”, for which the “gcPBM binding intensity (ln)” value was found to be 9.05 ± 0.47.

Take “TATTATAATTTTATATGTACACATATATAAATATAT [XGTACX_site4054]”: the “gcPBM binding intensity (ln)” value was 8.3 ± 0.28.

For “TTTATTTATTAATACACACACACACCCCCACAAAAT [CACACA_site240]”, the “gcPBM binding intensity (ln)” value was 10.1 ± 0.42.

Regarding “TACATAAACATTTATACACACATTAGATATACATAT [CACACA_site6329]”, the “gcPBM binding intensity (ln)” value stood at 8.4 ± 0.46.

With “CTAAATAAAGTTAACACACACATAATATTTATATGT [CACACA_site6368]”, the “gcPBM binding intensity (ln)” value turned out to be 8.23 ± 0.27.

For the sequence TCAAAGAGTAGAAAGGTGCTTATGAACGAGATAATT, the “gcPBM binding intensity (ln)” value is 8.6 ± 0.26.

Consider “TTTTTTAAAACTTCAAAAAGAGCACTTGAATTTTTT [GTGCAC_negctrl_site455]”, for which the “gcPBM binding intensity (ln)” value is 8.07 ± 0.35.

With “ACATATACATTTATATGTACTCATTTATCTTATGTA [XGTACX_site6594]”, the “gcPBM binding intensity (ln)” value was found to be 8.49 ± 0.25.

On to “AAATATTACATACACGCACACATTAATATATTTAAA [CACACA_site2603]”, for which the “gcPBM binding intensity (ln)” value worked out at 8.63 ± 0.35.

For the sequence “AACTAAATTTATAATTGTACATTAAAATATGTATTA [XGTACX_site479]”, the “gcPBM binding intensity (ln)” value worked out at 8.28 ± 0.4.

Consider “ACCTAATTTTTATATTGTACATAATATAATATATAT [XGTACX_site1715]”, for which the “gcPBM binding intensity (ln)” value stood at 8.66 ± 0.3.

As to “ACCTACACAAGCATTAAACACACAAAAGGGATACTT [CACACA_site8273]”, the “gcPBM binding intensity (ln)” value came to 8.71 ± 0.71.

For “ACAAGAACAGAACGTACACACACATATATATATATA [CACACA_site9143]”, the “gcPBM binding intensity (ln)” value was found to be 9.97 ± 0.39.

Consider “CTCCACAAACAAATCGCACACCCAACCCAACATATA [CACACA_site2650]”, for which the “gcPBM binding intensity (ln)” value came out at 9.22 ± 0.57.
